Assay results from the supplement of paper PMC4166925.
± gives the standard deviation of the averaged measurements. In all, about 33,000 sequences were measured (“E-score (dimensionless, -0.5 to 0.5)”: median about -0.046, highest 2% from about 0.36 on). This is one part of the list.

Each sequence was assayed on T1, SpTbr T-box DNA-binding domain (GST fusion) (assay: PBM E-score of 8-mer (E-score (dimensionless, -0.5 to 0.5)); Tbr is Tbrain of the sea star Patiria miniata (Pm) or the sea urchin Strongylocentrotus purpuratus (Sp); higher = stronger binding preference; most listed sequences are background and not binding sites). Details: the construct has about 5 more residues each side.
T1 sequence: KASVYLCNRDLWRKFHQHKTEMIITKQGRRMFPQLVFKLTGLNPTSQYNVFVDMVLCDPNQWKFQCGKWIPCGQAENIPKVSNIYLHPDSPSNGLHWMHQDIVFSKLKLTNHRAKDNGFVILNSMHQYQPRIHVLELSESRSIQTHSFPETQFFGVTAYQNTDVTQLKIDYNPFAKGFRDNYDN
In short: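 Each ungapped 8-mer received an enrichment E-score from the Universal PBM Analysis Suite, averaged over duplicate arrays. The proteins were Tbr T-box DNA-binding domains, covering the whole T-box plus about five flanking residues, fused to GST and expressed in BL21 E. coli at 20 °C before glutathione affinity purification. Universal Agilent oligonucleotide arrays were made double-stranded by primer extension and incubated with 200 nM protein in PBS (pH 7.5). The arrays were then scanned and quantified, and every 8-mer was scored from probe intensities.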

Sequence	PBM E-score of 8-mer
CGCTCATC	-0.112 ± 0.059
GCGGAAGA	0.0197 ± 0.024
ATTAGGTG	0.307 ± 0.018
ACAGCTAA	0.104 ± 0.024
GAACAAGC	-0.0796 ± 0.06
ATCATTAG	-0.164 ± 0.1
GAAAAGCC	-0.0965 ± 0.068
ATCATACA	-0.0785 ± 0.086
ACCTGGTA	-0.0333 ± 0.028
TATGGGCA	-0.132 ± 0.0057
CGCGTGTC	0.28 ± 0.024
GCGGCCCC	-0.0769 ± 0.0012
TGTTTAAA	-0.168 ± 0.0056
AGGTCAGG	-0.0779 ± 0.035
ATCTGGAC	-0.116 ± 0.035
GGATTTCA	-0.166 ± 0.1
ATTTTAGC	0.196 ± 0.013
ACAGGGCA	-0.0596 ± 0.039
GTCTTATA	-0.0249 ± 0.1
GGTATTCA	-0.187 ± 0.0041
CACCTGTC	0.431 ± 0.019
AGCACTCC	-0.0167 ± 0.022
CAGATAAG	-0.0189 ± 0.046
CTGGAACA	-0.189 ± 0.061
GCGCTGCA	0.0743 ± 0.073

Sequence	PBM E-score of 8-mer
GTCCCGCA	-0.00105 ± 0.02
CGCGCTGC	0.0949 ± 0.0066
CCCGCTGC	0.00495 ± 0.0082
AGTTGATA	0.132 ± 0.059
AGTCACTC	0.0274 ± 0.044
GACTCACA	0.313 ± 0.038
CTGAACAG	-0.0231 ± 0.0095
ACGCGAAA	0.138 ± 0.018
CTCGATCA	0.0688 ± 0.04
ATCTAGTC	-0.148 ± 0.11
AAAACTGT	0.105 ± 0.033
AAACTTAC	-0.0103 ± 0.078
AGCTAAAC	-0.185 ± 0.028
CGTCCTCC	-0.263 ± 0.021
CGTTATGA	-0.0163 ± 0.01
AGAGTCGA	0.0119 ± 0.061
CTGACGAA	0.041 ± 0.026
ATGGGATC	-0.175 ± 0.018
CCCCACCA	-0.0379 ± 0.0039
GCACTGCA	-0.101 ± 0.021
GACGCTAA	0.15 ± 0.013
AGCAAACC	-0.13 ± 0.04
ACGGTCCC	-0.006 ± 0.023
CGGTCACG	0.241 ± 0.054
GCCGGCTA	-0.038 ± 0.068

Sequence	PBM E-score of 8-mer
GTCAGTGA	0.204 ± 0.022
TCCGATCA	0.0994 ± 0.032
ACATATAT	-0.0491 ± 0.069
ACGACGGC	-0.0199 ± 0.027
CACTACGG	0.102 ± 0.022
AGTGACGG	0.218 ± 0.027
ACTTTGCC	-0.058 ± 0.051
AGAGAAAA	-0.176 ± 0.038
ATTGGACG	-0.289 ± 0.017
GTATATAA	-0.119 ± 0.034
CCCTTTGC	-0.174 ± 0.0099
ATTTCGGC	0.0621 ± 0.039
AGTGTTTA	0.245 ± 0.062
CAGCTGCC	-0.0128 ± 0.074
AGCCAAGA	-0.218 ± 0.069
ACAATCCA	-0.0282 ± 0.062
AACTTAGC	0.0443 ± 0.063
AGATAAAG	-0.181 ± 0.053
GGATTGCC	-0.0182 ± 0.03
ATTTAAAT	-0.06656 ± 0.00039
ATGACTCG	-0.0945 ± 0.034
ACACGAGC	0.143 ± 0.065
CAAGCATG	0.0445 ± 0.0049
CAATTCAA	-0.0384 ± 0.006
ACCTTAAT	0.133 ± 0.004

Sequence	PBM E-score of 8-mer
AATCGGGC	-0.214 ± 0.038
CATTCGCG	0.389 ± 0.0059
CGACGGGC	-0.126 ± 0.0078
CTAACGGC	0.203 ± 0.012
AGTTGGCA	0.284 ± 0.0051
ACTTCACT	0.147 ± 0.01
ATTTAAAG	-0.21 ± 0.099
AATAAGGA	-0.177 ± 0.017
GCAATGAA	0.029 ± 0.0097
GTGATAGA	0.303 ± 0.014
GCGGAAGC	-0.00368 ± 0.1
CTGGGACC	-0.174 ± 0.015
CCGCGATC	0.221 ± 0.054
CATTCCAC	0.00277 ± 0.0014
CTGCTCAA	-0.0979 ± 0.022
AACCATAG	-0.0674 ± 0.025
ACTGTGAC	0.237 ± 0.023
GGCAAGCA	-0.152 ± 0.026
GGCTTAGA	-0.287 ± 0.016
AACTCCAG	-0.232 ± 0.096
GGATGACA	0.146 ± 0.068
ATCCAAGG	0.0545 ± 0.049
CTTAGTTA	-0.145 ± 0.069
ACAGTCGG	0.0268 ± 0.042
TAACACGA	0.288 ± 0.047

Sequence	PBM E-score of 8-mer
AGTCCTAA	-0.2154 ± 0.0017
TGGACTAA	-0.235 ± 0.028
ACACACGT	0.288 ± 0.0081
AGCAAAAA	-0.0315 ± 0.021
ACTATCGG	-0.145 ± 0.0086
CAATGTCA	0.227 ± 0.028
CTTCCGTA	-0.158 ± 0.14
ACGTAATC	-0.0447 ± 0.0023
TCACGGCA	0.186 ± 0.013
CCGAGGCG	0.296 ± 0.015
ACTCTGTG	-0.0534 ± 0.07
CCACATCA	0.213 ± 0.0094
AACCCCGG	-0.1205 ± 0.00093
ATGGATTC	-0.138 ± 0.041
ACCCCTGA	-0.0646 ± 0.14
AAGGTCAT	-0.251 ± 0.011
CGGTGCCC	-0.174 ± 0.03
AATTGAGT	-0.2 ± 0.0027
AAAAAAGT	-0.074 ± 0.11
CTGTAACA	0.284 ± 0.024
GAATGGCC	0.0193 ± 0.0058
CTCCGGTC	-0.0822 ± 0.024
CATCGAGC	-0.17 ± 0.058
CAGTCGTC	-0.0677 ± 0.025
CCTCCTGA	-0.0599 ± 0.024

Sequence	PBM E-score of 8-mer
CATTCAAG	-0.0193 ± 0.035
CTACTTAA	0.0422 ± 0.019
CCTCCGTA	-0.0797 ± 0.049
AGTCCTAG	-0.136 ± 0.056
GAGTATGC	-0.243 ± 0.051
GGCTCACA	0.161 ± 0.053
GACACGTA	0.29 ± 0.0077
CAGCGTAG	-0.168 ± 0.0058
CATGTCGG	-0.0356 ± 0.033
AAGGACCG	-0.114 ± 0.058
AGCGTCTC	-0.00741 ± 0.05
ACCGTGAC	0.0997 ± 0.0054
ACTTGACC	-0.233 ± 0.058
CGTGGTAC	-0.0112 ± 0.075
AAAAATGG	-0.329 ± 0.016
TCCATACA	-0.279 ± 0.03
TATTTCCA	-0.0513 ± 0.025
CGGAGCCC	-0.273 ± 0.033
AGAAGACA	0.0347 ± 0.065
AGGAGAGC	-0.223 ± 0.017
CTATAGCA	-0.0519 ± 0.022
AAGCGTTG	0.192 ± 0.056
ATACAGTA	-0.0823 ± 0.069
CCGGGCAG	0.00502 ± 0.076
CAGCCGCG	0.0443 ± 0.017

Sequence	PBM E-score of 8-mer
AGAGGCAT	-0.31 ± 0.012
AGACATAC	-0.0637 ± 0.046
CCAGCAAC	0.132 ± 0.08
CGGATTTA	-0.0558 ± 0.011
AAAGAGAC	0.014 ± 0.013
ATGCATCG	-0.277 ± 0.031
AGCGTCCG	-0.0385 ± 0.011
GAATGTTA	-0.116 ± 0.042
AATTTAGG	-0.123 ± 0.019
ACGGCGAC	0.0465 ± 0.15
ACTCCGGC	0.0182 ± 0.027
GATGCTAA	-0.0514 ± 0.076
AAGCATAA	-0.188 ± 0.034
GACAACTA	0.126 ± 0.089
ATCGTAGC	-0.0987 ± 0.018
GATTGGCA	-0.00044 ± 0.062
ACGAGCCT	-0.103 ± 0.074
ACCAGCAA	0.0682 ± 0.1
CTACCCTC	0.00491 ± 0.053
AGCTAGAC	-0.0541 ± 0.11
CGTAGGCC	-0.165 ± 0.05
GCCCTCGA	-0.117 ± 0.0067
